The target in assay [1] is full-length EGFP-Syn3a (UniProt O70441). Kind of assay: co-IP; HEK293 co-transfected; modified BRB80 buffer; immunoprecipitation of EGFP/YFP-synapsin with an anti-GFP antibody; immunoblot for GFP/YFP and Myc-C9orf72L. (Immunoblotting shows a protein as a band on a membrane.)
For assay [2], the target named is EGFP-tagged Syn1a (UniProt P09951). The assay is described as above.
Assay [3] deals with YFP-tagged Syn2a (UniProt Q63537). The assay is described as above.
Assay [4] concerns the target EGFP-Syn3aΔJE (UniProt O70441). As to the kind of experiment: co-IP; HEK293 co-transfected; modified BRB80 buffer; immunoprecipitation of EGFP-Syn3a constructs with GFP-Trap magnetic agarose beads; immunoblot for Myc-C9orf72L and EGFP.
The target of assay [5] is full-length EGFP-Syn3a (UniProt O70441). The description is as above.
The target of assay [6] is EGFP-Syn3aΔE (UniProt O70441). The description is as above.
For assay [7], the target named is EGFP-Syn3aΔCJE (UniProt O70441). The assay is described as above.
The target in assay [8] is EGFP-Syn3aΔBCJE (UniProt O70441). The assay is described as above.
In assay [9] the target is T1, endogenous C9orf72 (mouse brain synaptosomes) (mouse (endogenous in mouse brain synaptosomes)) (UniProt Q6DFW0).
T1 sequence: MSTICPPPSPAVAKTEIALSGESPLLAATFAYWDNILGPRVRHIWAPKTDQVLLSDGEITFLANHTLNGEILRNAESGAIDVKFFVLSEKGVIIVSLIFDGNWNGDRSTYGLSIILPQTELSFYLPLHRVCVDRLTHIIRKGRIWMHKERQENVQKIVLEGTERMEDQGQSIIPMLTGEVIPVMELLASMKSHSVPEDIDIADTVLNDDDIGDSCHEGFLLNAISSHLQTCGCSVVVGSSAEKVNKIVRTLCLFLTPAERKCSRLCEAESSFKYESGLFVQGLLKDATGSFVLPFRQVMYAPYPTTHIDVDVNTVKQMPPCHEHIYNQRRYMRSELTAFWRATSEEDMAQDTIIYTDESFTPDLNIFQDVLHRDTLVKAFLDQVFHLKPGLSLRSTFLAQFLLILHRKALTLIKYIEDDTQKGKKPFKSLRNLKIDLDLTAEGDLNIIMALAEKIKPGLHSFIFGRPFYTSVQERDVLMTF
As to the kind of experiment: co-IP; endogenous proteins; crude synaptosomal fraction (P2') of 12-week-old mouse brains solubilised in 80 mM PIPES pH 6.8, 1% NP-40, IP with 50 mM NaCl, 4 µg anti-C9orf72 antibody 16 h at 4 °C, Protein G Mag Sepharose; controls: irrelevant antibody and C9orf72-KO synaptosomes.

Sequences of proteins named here, by UniProt entry; tags and fusion partners are left off. A change or cut given only in a name is not applied to a line headed by its entry. Residues count along the entry.
UniProt O70441: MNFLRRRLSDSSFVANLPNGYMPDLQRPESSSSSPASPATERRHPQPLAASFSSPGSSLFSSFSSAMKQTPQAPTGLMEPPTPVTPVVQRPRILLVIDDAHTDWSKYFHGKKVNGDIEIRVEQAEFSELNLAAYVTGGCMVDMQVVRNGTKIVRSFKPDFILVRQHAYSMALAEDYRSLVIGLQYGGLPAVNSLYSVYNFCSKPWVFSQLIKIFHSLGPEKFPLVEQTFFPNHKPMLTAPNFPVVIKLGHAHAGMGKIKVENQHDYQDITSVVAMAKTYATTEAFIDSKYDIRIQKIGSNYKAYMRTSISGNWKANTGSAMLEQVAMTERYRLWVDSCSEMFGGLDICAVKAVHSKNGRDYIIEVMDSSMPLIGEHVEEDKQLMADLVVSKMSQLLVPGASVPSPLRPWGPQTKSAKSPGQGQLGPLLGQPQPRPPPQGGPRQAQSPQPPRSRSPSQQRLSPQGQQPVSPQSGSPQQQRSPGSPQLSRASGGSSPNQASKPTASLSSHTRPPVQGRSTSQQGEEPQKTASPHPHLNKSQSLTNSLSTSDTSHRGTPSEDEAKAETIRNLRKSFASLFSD
EGFP-Syn3aΔE: residues 1-529 of O70441
EGFP-Syn3aΔJE: residues 1-400 of O70441
EGFP-Syn3aΔCJE: residues 1-91 of O70441
EGFP-Syn3aΔBCJE: residues 1-28 of O70441
UniProt Q63537: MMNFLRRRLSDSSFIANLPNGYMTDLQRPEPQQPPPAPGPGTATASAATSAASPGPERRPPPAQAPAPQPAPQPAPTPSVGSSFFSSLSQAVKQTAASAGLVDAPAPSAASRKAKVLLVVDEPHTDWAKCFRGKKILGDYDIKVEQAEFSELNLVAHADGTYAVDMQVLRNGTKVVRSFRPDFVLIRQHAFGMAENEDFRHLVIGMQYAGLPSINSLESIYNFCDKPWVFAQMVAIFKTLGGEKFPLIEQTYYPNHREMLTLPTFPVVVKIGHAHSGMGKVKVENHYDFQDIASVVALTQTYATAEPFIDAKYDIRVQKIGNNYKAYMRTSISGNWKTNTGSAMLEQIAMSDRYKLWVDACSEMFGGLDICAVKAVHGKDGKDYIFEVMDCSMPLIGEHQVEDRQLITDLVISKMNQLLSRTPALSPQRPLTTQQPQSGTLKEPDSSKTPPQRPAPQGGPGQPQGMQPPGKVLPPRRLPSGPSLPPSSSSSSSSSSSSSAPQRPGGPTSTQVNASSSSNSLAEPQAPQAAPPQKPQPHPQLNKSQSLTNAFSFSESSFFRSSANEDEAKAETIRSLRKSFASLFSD

No constants are given. Whether binding was seen depends on the method and setting. Binding seen in cells or lysates may run through a third protein. Some binding calls cover weakened binding; strength is not graded here. For part of these data: Where a sequence is shown, tags or fusion partners need not be part of it.

In PMC9381633 one finds binding data, which are given here for two molecules.

B1: Myc-tagged C9orf72L (protein, UniProt Q96LT7 1-481)
chain: MSTLCPPPSPAVAKTEIALSGKSPLLAATFAYWDNILGPRVRHIWAPKTEQVLLSDGEITFLANHTLNGEILRNAESGAIDVKFFVLSEKGVIIVSLIFDGNWNGDRSTYGLSIILPQTELSFYLPLHRVCVDRLTHIIRKGRIWMHKERQENVQKIILEGTERMEDQGQSIIPMLTGEVIPVMELLSSMKSHSVPEEIDIADTVLNDDDIGDSCHEGFLLNAISSHLQTCGCSVVVGSSAEKVNKIVRTLCLFLTPAERKCSRLCEAESSFKYESGLFVQGLLKDSTGSFVLPFRQVMYAPYPTTHIDVDVNTVKQMPPCHEHIYNQRRYMRSELTAFWRATSEEDMAQDTIIYTDESFTPDLNIFQDVLHRDTLVKAFLDQVFQLKPGLSLRSTFLAQFLLVLHRKALTLIKYIEDDTQKGKKPFKSLRNLKIDLDLTAEGDLNIIMALAEKIKPGLHSFIFGRPFYTSVQERDVLMTF
As to B1, the binding entry in [1], in assay [2], in assay [3], in [4], in assay [5] and in assay [6] was “binds” throughout. Further, the binding result in [7] and in [8] was “no binding” each time.

B2: endogenous SMCR8 (mouse brain synaptosomes) (protein, UniProt Q3UMB5 1-935)
chain: MISAPDVVAFTKEDEYEEEPYNEPALPEEYSVPLFPYASQGANPWSKLSGAKFSRDFILISEFSEQVGPQPLLTIPNDTKVFGTFDLNYFSLRIMSVDYQASFVGHPPGSAYPKLNFVEDSKVVLGDSKEGAFAYVHHLTLYDLEARGFVRPFCMAYISADQHKIMQQFQELSAEFSKASECLKMGNRKAFAGELEKKLKDLDYTRTVLHTETEIQKKANDKGFYSSQAIEKANELANVEKSIIEHQDLLRQIRSYPRQKTKIPDLQPGDTEHTQDQADQVSTTSNPEESANADLYTCRPAYTPKLIKAKSTKCFDKKLKTLEELCDTEYFTQTLAQLSHIEHMFRGDLCYLLTSQIDRVLRKQQPITNFLFEDFVEVDDRMEKQENVPSQPSQDRLPPKPVEECPIPKVLISVGSYKSSVESVLIKMEQELGDEEYTGVEATEARSFDPQENLDYLDMDMKGSISSGESIEVLGTEKSASVLSKSDSQASLTVPLSPHVVRSKAVSHRTISEDSIEVLSTCPSEALIPDDFKASYPSAINEEEAYADNEGAIHFQASAGSPEPDETQEGNLENIPSQIDSSCCIGKESEGHLVPLPTPAYTLSDEDSVVSIPPQRYIQKDQGLHVDFGVENTDPSPRDNSCEMFPAYELDPSCLLASRDVSKMSLDNYSDTTSYMGSAASTSSDRIPSAPPAGLSSERHKKRAGQNALKFIRQYPFAHPAIYSLLSGRTLVVLGEDETIVRKLVTALSIFVPNYGCYAKPVKHWISSPLHIMDFQKWKLIGLQRVASPANVGTLHTLSRYSRYTSILDLDSKTLRCPLYRGTLVPRLADHRTQIKRGSTYYLHVQSMLTQLCSKAFLYTFCHHLHLPAHSEETQEAVASRQTSFLKLNLGLVNEDIRVVQYLAELLKLHYMQESPGTTHPLLRFDYVPSFLYKI
As for B2, the binding entry in assay [9] was “binds”.
